Measured values as given in PubChem BioAssay AID2147 (National Center for Advancing Translational Sciences (NCATS), 2009).
Where “and” joins values, the source holds several entries; their conditions need not be identical. Identical values can stand only once. Among all 230,000 compounds or so, about 3,600 (1.6%) were called active. Inconclusive results, whose numbers are uncertain, are shown with a selection of clear calls. Calls follow the shape of the dose curve; as a rule, active = well fitted inhibition curve with a large enough effect (not every such curve was filed as active); inconclusive = small, poorly fitted or top-dose-only effect, or another doubt; inactive = no such curve, though single readings can be large or run the other way. Where the call is inconclusive, the potency comes from a doubtful curve fit.

target: Lysine-specific demethylase 4E (Homo sapiens) (UniProt B2RXH2); test: qHTS Assay for Inhibitors of Human Jumonji Domain Containing 2E (JMJD2E); settings: JMJD2E catalytic domain, FDH-coupled NADH fluorescence (FDH is formaldehyde dehydrogenase); series mostly up to 57.1 µM; activity change, negative = inhibition: at the top concentration
Also: nearly all actives have a fitted effect of over 50% in size.
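For activity change, negative = inhibition in this document: 0% = wells with enzyme and -100% = buffer wells without enzyme.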
Potency is read from the fitted curve at half-maximal effect; tags tell the direction and shape of the fitted curve.

UniProt B2RXH2, sequence (B2RXH2 whole entry, looked up, the tested form may be a part): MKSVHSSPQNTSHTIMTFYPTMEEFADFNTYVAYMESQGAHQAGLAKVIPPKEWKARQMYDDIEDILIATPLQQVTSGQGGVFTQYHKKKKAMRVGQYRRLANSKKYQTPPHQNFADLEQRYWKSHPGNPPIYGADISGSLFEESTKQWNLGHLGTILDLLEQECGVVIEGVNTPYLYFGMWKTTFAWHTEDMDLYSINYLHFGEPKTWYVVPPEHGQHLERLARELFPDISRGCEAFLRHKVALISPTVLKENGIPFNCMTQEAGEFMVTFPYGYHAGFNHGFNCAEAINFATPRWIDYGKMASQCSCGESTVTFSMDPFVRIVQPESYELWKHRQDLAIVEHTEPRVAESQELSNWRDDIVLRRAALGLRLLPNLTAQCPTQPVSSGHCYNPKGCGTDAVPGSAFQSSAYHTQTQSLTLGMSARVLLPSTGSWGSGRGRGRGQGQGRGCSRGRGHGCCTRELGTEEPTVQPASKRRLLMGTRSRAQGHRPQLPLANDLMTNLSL

SMILES	Potency	activity change, negative = inhibition
COc1cc(/C=C/C(=O)OCC(=O)Nc2c(C)n(C)n(-c3ccccc3)c2=O)ccc1OCC#N	inconclusive: 35.5 µM [inhibitor, partial curve]	–
Cc1cc(-c2c(C)[nH]n(-c3ccc(Cl)cc3)c2=O)n[nH]1	inconclusive: 39.8 µM [inhibitor, single point]	–
S=c1nc[nH]c2c1[nH]c1ccccc12	inconclusive: 25.1 µM [inhibitor, single point]	–
COc1ccc2nc(S(=O)Cc3ncc(C)c(OC)c3C)[nH]c2c1 (stereo not given)	active: 11.2 µM and active: 25.1 µM	–
COc1ccc(-c2cc(-c3cccs3)c(C#N)c(SCC(=O)NCc3ccccc3OC)n2)cc1	inconclusive: 3.98 µM [inhibitor, single point]	–
CCOc1cc(/C=N/NC(=O)c2ccc(CN3CCOCC3)cc2)ccc1OCc1ccccc1	inconclusive: 35.5 µM [inhibitor, single point]	–
Cn1ccc(-c2cc(C(=O)O)c3ccccc3n2)n1	inconclusive: 35.5 µM [inhibitor, single point]	–
COc1ccc(-c2nc(CSCC(=O)N3CCN(C)CC3)c(C)o2)cc1OC	inconclusive: 35.5 µM [inhibitor, single point]	–
O=C(CNc1ccccc1-c1ccccc1)NCc1ccccc1	inconclusive: 35.5 µM [inhibitor, single point]	–
CC(COc1ccccc1)N1CCC(CO)(CCc2ccccc2)CC1 (stereo not given)	–	inactive: 7.38%
Cc1ccccc1OCCSc1nc2ncnc(N)c2[nH]1	inconclusive: 39.8 µM [inhibitor, single point]	–
CCOC(=O)c1sc(NC(=O)CSc2nc3c(cc2C#N)CCCCC3)c(C#N)c1C	inconclusive: 8.91 µM [inhibitor, single point]	–
CCOC(=O)c1c(NC(=O)C2=C(C)NC(=S)NC2c2ccc(CC)cc2)sc(C)c1C (stereo not given)	inconclusive: 28.2 µM [inhibitor, partial curve]	–
O=c1[nH]c2cc(Cl)c(Cl)cc2[nH]c1=O	inconclusive: 35.5 µM [inhibitor, single point] and inconclusive: 25.1 µM [inhibitor, partial curve]	–
CCOc1cc2[nH]c(=O)n(CCCC(=O)NCc3ccco3)c(=O)c2cc1OCC	inconclusive: 31.6 µM [inhibitor, partial curve]	–
CCN(CC)c1ccc(/C=N/Nc2nc(C)cc(=O)[nH]2)cc1	inconclusive: 25.1 µM [inhibitor, partial curve]	–
CCOC(=O)C1=C(C)NC(SCC(N)=O)=C(C#N)C1c1cccs1 (stereo not given)	inconclusive: 39.8 µM [inhibitor, single point]	–
CCc1cccc2c(/C=N/NC(=O)c3cccc(S(=O)(=O)Nc4ccccc4Cl)c3)c[nH]c12	inconclusive: 39.8 µM [inhibitor, single point]	–
CCC(C)(C)n1nnnc1C(c1cc2ccc(OC)cc2[nH]c1=O)N1CCc2ccccc21 (stereo not given)	inconclusive: 39.8 µM [inhibitor, single point]	–
CCn1c(C)nc2cc(C(=O)NNC(=S)NC(=O)c3ccccc3)ccc21	inconclusive: 39.8 µM [inhibitor, single point]	–
COc1ccc(-c2cc(C(F)(F)F)nc(-n3ccnc3C)n2)cc1	inconclusive: 31.6 µM [inhibitor, single point]	–
COc1ccc(-n2nnnc2SCc2nc3ccccc3s2)cc1	–	inactive: -9.87%

SMILES	Potency	activity change, negative = inhibition
COc1ccc(-c2cc(C(=O)NCc3cccnc3)no2)cc1	inconclusive: 31.6 µM [inhibitor, single point]	–
O=S(=O)(/N=C(\Sc1ccccc1)c1ccccc1)c1ccc(Cl)cc1	inconclusive: 35.5 µM [inhibitor, single point]	–
CN1CCN(C(=O)CSc2nc(-c3cccs3)cc(-c3cccs3)c2C#N)CC1	inconclusive: 14.1 µM [inhibitor, partial curve]	–
CSCC[C@H](NC(=O)OC(C)(C)C)C(=O)N/N=C/c1cccc2nccnc12	inconclusive: 31.6 µM [inhibitor, single point]	–
O=C(c1cccc(Br)c1)N1CCCC1	–	inactive: 3.18%
O=C(COc1ccc2ccccc2c1)Nc1cccc(C(=O)Nc2ccccc2C(=O)O)c1	–	inactive: 0.736%
CN(Cc1ccno1)C(=O)CC1C(=O)NCCN1CC(c1ccccc1)c1ccccc1 (stereo not given)	inconclusive: 39.8 µM [inhibitor, single point]	–
Cc1cc(/C=C2/C(=O)N(C)C(=S)N2C)ccc1N1CCCC1	–	inactive: -18.1%
CCN(CC)c1ccc(C2C(C(=O)OCCOC)=C(C)NC3=C2C(=O)CCC3)cc1 (stereo not given)	inconclusive: 31.6 µM [inhibitor, partial curve]	–
Cc1ccc(-c2nnc(-c3cccs3)o2)cc1	inconclusive: 4.47 µM [inhibitor, partial curve, poor fit]	–
O=C1CC(NC(=O)C(F)(F)F)c2cc3c(cc21)OCO3 (stereo not given)	inconclusive: 28.2 µM [inhibitor, partial curve]	–
COc1ccc(NC(=O)c2ccco2)cc1NC(=O)c1c(F)c(F)c(OC)c(F)c1F	inconclusive: 35.5 µM [inhibitor, single point]	–
O=C(c1cc(-c2cccs2)on1)N1CCOCC1	–	inactive: -3.68%
CSC(=Nc1ccccc1)C1=C(O)COC1=O	inconclusive: 39.8 µM [inhibitor, single point]	–
[O-][n+]1c2c(c3c4non(O)c4ccc31)CCCC2	–	inactive: 2.25%
COc1ccc(-n2c(C)c(C(C)=O)c3cc(O)ccc32)cc1	–	inactive: 3.34%
CCCCCC(O)CCC(=O)NNC1=CC(=O)CC(C)(C)C1 (stereo not given)	inconclusive: 35.5 µM [inhibitor, partial curve, poor fit]	–
Cc1ccc(S(=O)(=O)NC(=O)c2ccc(-c3ccc(-c4ccccc4)cc3)o2)c(C)c1	inconclusive: 31.6 µM [inhibitor, single point]	–
COCc1[nH][nH]c(=O)c1/C=N/N1CCOCC1	–	inactive: -9.87%
CCCCOc1ccc(C2C3CN(C(=O)OCC)CC=C3C(C#N)=C(N)C2(C#N)C#N)cc1OC (stereo not given)	inconclusive: 25.1 µM [inhibitor, single point]	–
Cc1cc(NC(=O)CSc2ccc3nnc(-c4ccccn4)n3n2)no1	inconclusive: 28.2 µM [inhibitor, partial curve]	–
CCC(C)n1c(=O)c(C(=O)Nc2ccccc2S(N)(=O)=O)c(O)c2ccccc21 (stereo not given)	inconclusive: 31.6 µM [inhibitor, partial curve]	–

SMILES	Potency	activity change, negative = inhibition
CCOc1ccc(C(C)=O)cc1N1C(=O)C2C3C=CC(C3)C2C1=O (stereo not given)	–	inactive: -6.76%
CCOC(=O)C1=C(C(C)=O)C(c2cccnc2)C(C#N)=C(N)O1 (stereo not given)	inconclusive: 28.2 µM [inhibitor, partial curve]	–
CCC1=NN2C(=N)/C(=C/c3cc(C)n(Cc4ccccc4)c3C)C(=O)N=C2S1	inconclusive: 39.8 µM [inhibitor, single point]	–
COc1ccc2[nH]c(=O)c(CNc3ccccc3OC)cc2c1	inconclusive: 17.8 µM [inhibitor, partial curve]	–
Cc1cc2nc(C)n(CCCNC(=O)Nc3cccc4ccccc34)c2cc1C	inconclusive: 28.2 µM [inhibitor, single point]	–
O=C(Nc1nnc(-c2ccco2)o1)c1ccc(S(=O)(=O)N2CCOCC2)cc1	inconclusive: 39.8 µM [inhibitor, single point]	–
N=c1c(C(=O)NCc2ccc(F)cc2)cc2c(=O)n3ccccc3nc2n1CCCN1CCOCC1	inconclusive: 25.1 µM [inhibitor, partial curve]	–
Cn1c(N)c(C(=O)COC(=O)c2cc(-c3ccco3)nc3ccccc23)c(=O)n(C)c1=O	inconclusive: 14.1 µM [inhibitor, partial curve] and inconclusive: 28.2 µM [inhibitor, partial curve]	–
OC[C@@H](O)COc1cccc2ccccc12	inconclusive: 35.5 µM [inhibitor, partial curve, poor fit]	–
Nc1cc(C(=O)O)ccc1Nc1ccccc1	inconclusive: 35.5 µM [inhibitor, partial curve]	–
N#Cc1nc(-c2ccco2)oc1N1CCC(Cc2ccccc2)CC1	inconclusive: 28.2 µM [inhibitor, partial curve]	–
CCCCCCCCC[n+]1cccc2c3ccccc3ccc21	inconclusive: 31.6 µM [inhibitor, partial curve]	–
Cc1ccc(-c2nnc(NCc3ccccc3)c3ccccc23)cc1	–	inactive: -1.28%
Cc1cc(C)nc(N/N=C/c2ccccc2OCc2ccc(Br)cc2)n1	–	inactive: -0.531%
Cc1cc2c(c(=O)n1Cc1ccccn1)C(C(C)C)C(C#N)=C(N)O2 (stereo not given)	–	inactive: 4.6%
COc1ccc2oc(=O)c(-c3nc(C)cs3)cc2c1	inconclusive: 14.1 µM [inhibitor, partial curve]	–
COc1cc(/C=C/C(=O)OCc2cn3cc(Cl)ccc3n2)ccc1O	inconclusive: 25.1 µM [inhibitor, single point]	–
CSc1nnc(-c2sc3cc(C(F)(F)F)cnc3c2-c2cccnc2)n1C	inconclusive: 22.4 µM [inhibitor, partial curve]	–
O=c1c2cc(N3CCOCC3)ccc2[nH]c(=S)n1Cc1ccco1	inconclusive: 39.8 µM [inhibitor, single point]	–
CCOC(=O)c1c(-c2ccc(C)cc2)cn2ccccc12	inconclusive: 35.5 µM [inhibitor, single point]	–
O=C(Nc1ccc2nsnc2c1)c1cccs1	inconclusive: 22.4 µM [inhibitor, single point]	–
